According to PubChem BioAssay AID1745845 (National Center for Advancing Translational Sciences (NCATS), 2022):
Screen size: about 360,000 compounds; about 2,600 (0.72%) were called active. The inconclusive results got no clear call from the source; some entries with a clear call stand among them for comparison. Calls come from the whole dose curve; as a rule, active = well fitted inhibition curve with a large enough effect; inconclusive = small, poorly fitted or top-dose-only effect; inactive = no such curve, though single readings can be large or run the other way. A potency beside an inconclusive call is a rough fit, not a confirmed value. Where a structure was tested more than once in an assay, its records may differ in their call.

Assay: Primary qHTS for Inhibitors of ATXN expression; note: nearly all actives have a fitted effect of over 55% in size
Details: HEK-293 ATXN2-luciferase reporter, luminescence, 24 h; activity change, negative = inhibition: at 57 µM (top of the series)
Procedure, shortened: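 ATXN2-luciferase reporter cells (luciferase flanked by upstream and downstream ATXN2 gene portions) were treated 24 h at 37 °C with compounds at up to 57 uM. SteadyGlo luminescence gave expression; GF-AFC fluorescence gave viability.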
% is set by controls: 0 for no effect and ±100 for the full control effect; potency is the fitted concentration of half-maximal effect; tags give direction and shape of the fitted curve.

Activity change, negative = inhibition, inactive:
COCCNc1nc(N)c([N+](=O)[O-])c(Nc2ccc(F)cc2)n1 -7.5%, CCOc1ccc(C(=O)NCC(=O)Nc2ccc(N3CCOCC3)cc2)cc1OCC 29%, Cc1ccc(CN2c3ccccc3-c3nc(SCC(=O)NCCc4ccccc4)ncc3S2(=O)=O)cc1 5.19%, CCOC(=O)/C(=C/c1ccc(OC)cc1)NC(=O)c1ccco1 18.7%, COc1ccc(N2C[C@H](CSC)[C@@H](CC(=O)Nc3ccc(Br)cc3)C2=O)cc1 -14.5%, O=S(=O)(NNc1ccc(F)cc1F)c1cccc(Cl)c1 -6.48%, Cc1cc(C(=O)CN2C(=O)NC(C)(CC(C)C)C2=O)c(C)n1-c1ccc2c(c1)OCO2 (stereo not drawn) -4.89%, CC1CCN(S(=O)(=O)c2cccc3cccnc23)CC1 -4.98%, Cc1ccccc1-c1cc2nc(Oc3ccc4c(c3)OCO4)n(C)c(=O)c2s1 7.77%, Cc1[nH]c2ccccc2c1SCc1nnc(SCc2ccccc2)n1C -9.93%, CN(C)CCOC(=O)C12CC3(C)CC(C)(CC(C)(C3)C1)C2 -8.75%, CCOc1ncccc1C(=O)Nc1ccc(S(=O)(=O)NC2=NCCCCC2)cc1 13.2%, CCOP1(=O)OCC2OC(n3cnc4c(N)ncnc43)C(O)C2O1 (stereo not drawn) -14.7%, COc1ccc(C(C[N+](=O)[O-])c2c(-c3ccccc3)cc3ccccn23)c(OC)c1 (stereo not drawn) 0.15%, Cc1ccc(-c2cc(C(F)(F)F)nc(SCC(=O)c3cccc([N+](=O)[O-])c3)n2)cc1 -7.06%, COc1ccc(-c2cnnc(N/N=C/c3ccc(O)c(O)c3)n2)cc1 8.29%, CCc1n[nH]c(=S)n1/N=C/c1c(C)nn(-c2ccccc2)c1Cl -2.77%, O=S(=O)(Nc1nc2ccccc2s1)c1cc(F)ccc1F 1.75%, Cc1ccc(C(=O)c2cn(Cc3ccccc3F)c3cc4c(cc3c2=O)OCO4)cc1 -2.52%, CCOC(=O)c1ccc(N2CN(CCc3ccccc3)CNC2=S)cc1 -0.0622%, CCCCCCC(=O)N1CCC(c2nc3c(nnn3Cc3ccccc3Cl)c(=O)[nH]2)CC1 3.87%

Activity change, negative = inhibition, inconclusive:
CCc1nc(C)cn1S(=O)(=O)c1cc([N+](=O)[O-])ccc1Cl -44.5% [inhibitor]

Potency, inconclusive:
CCOC(=O)N1CCN(c2c(NC3CCN(Cc4ccccc4)CC3)c(=O)c2=O)CC1 39.8 µM [inhibitor, single point], O=C(Nc1ccncc1)C1CCCN(S(=O)(=O)c2cccc3cccnc23)C1 (stereo not drawn) 39.8 µM [inhibitor, partial curve, poor fit], CN(C(=O)/C=C/c1ccc([N+](=O)[O-])s1)c1ccccc1 10.6 µM [inhibitor, partial curve, poor fit], CCN(CC)CCNC(=O)c1ccc(-c2nc(CN3CCc4ccccc43)c(C)o2)cc1 17.8 µM [inhibitor, partial curve, poor fit], Cc1ccc(Cl)cc1NC(=O)c1nnn(Cc2ccccc2)c1N 1.12 µM [inhibitor, partial curve, poor fit], CN1CCc2c(sc3c2c(=O)n(-c2ccccc2)c2nnc(SCc4ccccc4)n32)C1 15.8 µM [inhibitor, partial curve, poor fit], CC(=O)N(c1ccc(Cl)cc1)c1c[nH]c2ccccc12 39.8 µM [inhibitor, single point], C[C@H](c1ccccc1)N1C[C@@H](COCc2ccccc2)Oc2cc(N3CC[C@@H](N(C)C)C3)ccc2S1(=O)=O 39.8 µM [inhibitor, single point], C#CCOCCOCCOCCNc1nc(N2CCN(C(=O)CCCCCCCCCCNC(=O)Cn3cc(CCCCCN)nn3)CC2)nc(N2CCN(C(=O)CCCCCCCCCCNC(=O)[C@H](CO)n3cc(CCCSC)nn3)CC2)n1 39.8 µM [inhibitor, single point], O=c1c2c3nc4ccccc4nc3n(/N=C/c3ccccn3)c2ncn1-c1ccccc1 0.282 µM [inhibitor, full curve, poor fit], Cc1ccc(/C=C/C(=O)NC(=S)Nc2ccccc2C(=O)NC2CCCCC2)cc1 20 µM [inhibitor, partial curve, poor fit], CCN(CC)CCNC(=O)c1ccccc1C(=O)c1ncc[nH]1 39.8 µM [inhibitor, partial curve, poor fit], CCOc1ccc(N(CC(=O)NCCC2=CCCCC2)S(=O)(=O)c2ccccc2)cc1 37.7 µM [inhibitor, single point], O=C(Nc1ccc(-c2csc(-c3ccccc3)n2)cc1)c1ccccc1 31.6 µM [inhibitor, single point], O=C(OCCN1C(=O)c2cccc3c(N4CCOCC4)ccc(c23)C1=O)c1ccccc1Cl 39.8 µM [inhibitor, single point], Cc1ccc(NS(=O)(=O)c2cc(C(=O)NCCSc3ccc(C)cc3)ccc2C)cc1 35.5 µM [inhibitor, single point], CCNC1CCC(Nc2ccnc3cc(Cl)ccc23)CC1 (stereo not drawn) 15.8 µM [inhibitor, partial curve, poor fit], COc1ccc(C(=O)CCN2CCCCCC2)cc1 39.8 µM [inhibitor, single point], COc1cc(CNC2CCCC2)cc(Cl)c1OCc1ccccc1Cl 35.5 µM [inhibitor, single point], CC(C)c1ccc2[nH]c(O)c(N=NC(=O)c3cccc(S(=O)(=O)Nc4cccc(Cl)c4)c3)c2c1 5.01 µM [inhibitor, full curve, poor fit], CCC1C/C(=C\c2cc(OC)c(OC)cc2OC)C(=O)/C(=C/c2cc(OC)c(OC)cc2OC)C1 (stereo not drawn) 10 µM [inhibitor, partial curve, poor fit], COc1ccc(CN(C(=O)CSc2nnc(-c3c[nH]c4ccccc34)o2)c2ccc(F)cc2)cc1OC 25.1 µM [inhibitor, single point], CCC(OCC(O)CN1CCN(CCN2C(=O)c3cccc4cccc(c34)C2=O)CC1)c1ccccc1 (stereo not drawn) 15.8 µM [inhibitor, partial curve], COc1cccc(-c2nc(CS(=O)(=O)CC(=O)Nc3cc(F)ccc3F)c(C)o2)c1 12.6 µM [inhibitor, partial curve, poor fit], Cn1c(SCC(=O)N/N=C/c2ccc([N+](=O)[O-])s2)nnc1-c1ccccc1 26.7 µM [inhibitor, partial curve, poor fit], COCCN(C(=O)COC(=O)c1ccccc1Nc1ccccc1)c1c(N)n(Cc2ccccc2)c(=O)[nH]c1=O 25.1 µM [inhibitor, single point], NC(=S)N=Nc1c(O)n(Cc2ccc(F)cc2)c2ccccc12 14.1 µM [inhibitor, partial curve], Cc1cnc(-c2cnc(NCCNc3ccc(C#N)cn3)nc2-c2ccc(Cl)cc2Cl)[nH]1 21.7 µM [inhibitor, partial curve], O=C(c1cccs1)N1C[C@H](n2cc(-c3ccc(F)cc3)nn2)[C@@H](O)C[C@@H]1c1ccc(Cl)cc1 35.5 µM [inhibitor, single point], Cn1c(=O)n(CCc2ccccc2)c(=O)c2c1ncn2Cc1ccccc1 17.8 µM [inhibitor, partial curve, poor fit], c1ccc(SCc2cn(C[C@H]3CC[C@@H]([C@@H]4CC[C@H](Cn5cc(CSc6ccccc6)nn5)O4)O3)nn2)cc1 28.2 µM [inhibitor, partial curve, poor fit], O=C(NCC(=O)N1CC(O)CC1C(=O)N1CCCC1C(=O)OCc1ccccc1)OCc1ccccc1 (stereo not drawn) 37.7 µM [inhibitor, single point], CC[C@@H]1CCC[C@@H](O)[C@@H](C)C(=O)O[C@H](C)[C@@H](C)C/C=C(C)/C(OC)=C\C(=O)N(C)C([C@@H](C)CC)C(=O)N(C)[C@@H](C(C)C)C(=O)N(C)[C@@H](COC)C(=O)N2CCC[C@H]2C(=O)N(C)[C@@H](C(C)C)C(=O)N2CCC[C@H]2C(=O)O1 (stereo partly drawn) 0.562 µM [inhibitor, partial curve, poor fit], NC(COCc1ccccc1)c1csc(Nc2ccccn2)n1 (stereo not drawn) 39.8 µM [inhibitor, single point], NC(=O)c1ccc(-c2ccc(N3C(c4ccsc4)=Cc4ccc(F)cc4C3CC(=O)c3ccco3)cc2)cc1 (stereo not drawn) 25.1 µM [inhibitor, partial curve, poor fit]

Potency, inactive:
CCN1CCN(C(=O)c2ccc3c(c2)N(Cc2ccccc2F)C(=O)c2ccccc2S3(=O)=O)CC1

Potency, active:
CC(C)Cn1cnc2c(N)nc3ccccc3c21 21.7 µM, Cc1cc(C)n(CC(O)Cn2c3ccc(Cl)cc3c3cc(Cl)ccc32)c(=O)n1 (stereo not drawn) 31.6 µM, CCN1c2ccccc2N(C)C1(C)c1ccccc1 (stereo not drawn) 17.8 µM, O=C1NC[C@H](c2ccccc2)OC(=O)[C@@H](Cc2ccc(F)cc2)CC/C=C/C[C@H]1CC(=O)N(CCO)Cc1ccccc1 14.1 µM, CC[C@]12c3[nH]c4ccc(Cl)cc4c3CCN1C(=O)[C@@H](CC(=O)NCC13CC4CC(CC(C4)C1)C3)C[C@@H]2C(=O)N1CCN(C(=O)C2CC2)CC1 25.1 µM
